# Laboratory results: the supplement of paper PMC8728848
# This is one part of the list.
# B1: Pbx2 (Cryptococcus neoformans) (protein)
# chain: AVSPLPSSTELVFYSQKRRRRRICSTATGSLSTPDPTRMTSDPYKRVGMRFSSVPRLLITFLSLLLLVSAAPPCVRFADYDSINQMFIDGGPGTKVLLCPNRLYRLSGPIIFTAADQEIATYGYPTGSERAVLRVEGRNTATAIQGDCRRCARVSVKNLVVDGNRKKLGRMRDFQLATGLVVLGGNEGQSIQNSWIKNPRGFTAIHIREGDKLQCSGARVEKNEIGPVGEEYDPEKDGDDPEMSPLGRPLADGVSIACRDSFIRDNTFRDNTDAAIVVYCSPGTLIHANHIFAQSLSAMAGILMVDSTPFNGDYTGTVVRSNIIDAVSRTIRVGIGIGPTVWSDDTETILTGGSVIGNGLKGRYMGYGIAAAGLKQWTIKDNWDEAKHEGRKSARCFDEPVNPDPIGLLYNRPTMEDCTVQSGFADHDFQYLVCIDGLYDKTNPPKHDPAPLAHDPSPTNAQEDNTVQQDGGDSKSKSIEQPREASDIEAEPSVEKMFSTGSEMMDDVLEHSHQRMHEVIDHLSRRIDILGAASAGKGSGDSKISEVLDPAMSSHLEKLQRKIEHLEFSLRSQIETAIQLRSAIQGWDQEMALVTDWEYDILLDVRHKLELSSYPHDQPLDPRLMRGQSYLNNEAVLVDDHSHPSLEGENLRAMSDRARLNANEEA
# How the values were obtained:
# Test in all cases: glycan array binding signal (z-score within array); higher = stronger binding
# Conditions in all cases: glycan notation: IUPAC condensed, linker removed
# [1] = target: GalNAc(b1-4)GlcNAc(b1-2)Man(a1-3)[GalNAc(b1-4)GlcNAc(b1-2)Man(a1-6)]Man(b1-4)GlcNAc(b1-4)GlcNAc
# Summary of the method: (§1)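 Arrays were curated from the Consortium for Functional Glycomics database, 3228 in total, and kept only where the protein sequence was available. Binding is expressed as a within-array Z-score. This score was averaged across arrays of the same protein sequence at different concentrations or buffers and across linkers, and negative values can be read as non-binding.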
# [2] = target: GalNAc(b1-4)GlcNAc(b1-3)GalNAc(b1-4)GlcNAc
# Summary of the method: as §1
# [3] = target: GalNAc(b1-4)GlcNAc6S
# Summary of the method: as §1
# [4] = target: GalNAc(b1-6)GalNAc
# Summary of the method: as §1
# [5] = target: GalNAc3S(b1-4)GlcNAc
# Summary of the method: as §1
# [6] = target: GalNAc3S(b1-4)GlcNAc3S
# Summary of the method: as §1
# [7] = target: GalNAc3S(b1-4)[Fuc(a1-3)]GlcNAc
# Summary of the method: as §1
# [8] = target: GalNAc4S6S(b1-4)GlcNAc
# Summary of the method: as §1
# [9] = target: GalNAc6S(b1-4)GlcNAc
# Summary of the method: as §1
# [10] = target: Glc(a1-4)Glc
# Summary of the method: as §1
# [11] = target: Glc(a1-4)Glc(a1-4)Glc(a1-4)Glc
# Summary of the method: as §1
# [12] = target: Glc(a1-6)Glc(a1-6)Glc
# Summary of the method: as §1
# [13] = target: Glc(a1-6)Glc(a1-6)Glc(a1-6)Glc
# Summary of the method: as §1
# [14] = target: Glc(b1-4)Glc
# Summary of the method: as §1
# [15] = target: Glc(b1-6)Glc
# Summary of the method: as §1
# [16] = target: GlcA(b1-3)Gal
# Summary of the method: as §1
# [17] = target: GlcA(b1-3)GlcNAc
# Summary of the method: as §1
# [18] = target: GlcA(b1-6)Gal
# Summary of the method: as §1
# [19] = target: GlcA3S(b1-3)Gal(b1-4)GlcNAc(b1-2)Man
# Summary of the method: as §1
# [20] = target: GlcA3S(b1-3)Gal(b1-4)GlcNAc(b1-3)Gal(b1-4)Glc
# Summary of the method: as §1
# [21] = target: GlcNAc(a1-3)Gal(b1-4)GlcNAc
# Summary of the method: as §1
# [22] = target: GlcNAc(a1-4)Gal(b1-3)GlcNAc
# Summary of the method: as §1
# [23] = target: GlcNAc(a1-4)Gal(b1-4)GalNAc
# Summary of the method: as §1
# [24] = target: GlcNAc(a1-4)Gal(b1-4)GlcNAc
# Summary of the method: as §1
# [25] = target: GlcNAc(a1-4)Gal(b1-4)GlcNAc(b1-3)Gal(b1-4)Glc
# Summary of the method: as §1
# [26] = target: GlcNAc(a1-4)Gal(b1-4)GlcNAc(b1-3)Gal(b1-4)GlcNAc
# Summary of the method: as §1
# [27] = target: GlcNAc(a1-4)Gal(b1-4)GlcNAc(b1-3)Gal(b1-4)GlcNAc(b1-3)Gal(b1-4)GlcNAc
# Summary of the method: as §1
# [28] = target: GlcNAc(a1-4)Gal(b1-4)GlcNAc(b1-3)Gal(b1-4)[Fuc(a1-3)]GlcNAc(b1-3)Gal(b1-4)[Fuc(a1-3)]GlcNAc
# Summary of the method: as §1
# [29] = target: GlcNAc(a1-6)Gal(b1-4)GlcNAc
# Summary of the method: as §1
# [30] = target: GlcNAc(b1-2)Gal(b1-3)GalNAc
# Summary of the method: as §1
binder,measurement,setting,value
B1,glycan array binding signal (z-score),[1],-0.034
same,glycan array binding signal (z-score),[2],-0.336
same,glycan array binding signal (z-score),[3],-0.649
same,glycan array binding signal (z-score),[4],-0.486
same,glycan array binding signal (z-score),[5],-0.522
same,glycan array binding signal (z-score),[6],0.7
same,glycan array binding signal (z-score),[7],-0.278
same,glycan array binding signal (z-score),[8],6.54
same,glycan array binding signal (z-score),[9],-0.15
same,glycan array binding signal (z-score),[10],-0.334
same,glycan array binding signal (z-score),[11],-0.694
same,glycan array binding signal (z-score),[12],-0.298
same,glycan array binding signal (z-score),[13],0.474
same,glycan array binding signal (z-score),[14],-0.168
same,glycan array binding signal (z-score),[15],0.061
same,glycan array binding signal (z-score),[16],0.144
same,glycan array binding signal (z-score),[17],-0.267
same,glycan array binding signal (z-score),[18],0.01
same,glycan array binding signal (z-score),[19],0.255
same,glycan array binding signal (z-score),[20],-0.291
same,glycan array binding signal (z-score),[21],-0.122
same,glycan array binding signal (z-score),[22],-0.481
same,glycan array binding signal (z-score),[23],-0.373
same,glycan array binding signal (z-score),[24],-0.276
same,glycan array binding signal (z-score),[25],0.305
same,glycan array binding signal (z-score),[26],0.137
same,glycan array binding signal (z-score),[27],-0.217
same,glycan array binding signal (z-score),[28],0.012
same,glycan array binding signal (z-score),[29],-0.635
same,glycan array binding signal (z-score),[30],-0.076
